Patent US20060177831A1 (published 2006)

B1: Anti-c-MET recombined Avimer RecM01 (dimer) (designed binder)
chain: CPAGQFTCRSTNRCIPLQWVCDGDNDCEDSSDESPAICATTGPTSLQKASAAYPYDVPDYAPGLEASGGSCESNEFQCRSTGRCVPVAWVCDGDNDCEDSSDEKNCKAPTSLQ
notes: Two A domains in one chain; Assayed protein also bears HA and 6His tags; also called C409
B2: Anti-c-MET Avimer monomer M05 (designed binder)
chain: CNTTQFSCRSTNRCIPLDWQCDGVTDCEDNSDEASCSAPASEPPGSLSLQ
notes: Assayed protein also bears HA and 6His tags; also called C132
B3: Anti-c-MET recombined Avimer monomer RecM05 (designed binder)
chain: CHPTAEFECHSTGRCIPVDWLCDGDNDCEDSSDEKNCKAHTSLQ
notes: Assayed protein also bears HA and 6His tags; also called C413

Key:
[1] = biological target: T1, c-MET extracellular domain (ECD)/Fc chimera (human, UniProt P08581 25-932); assay: binding ELISA on c-MET ECD/Fc, NiNTA-pure
T1 construct: Bought (R&D Systems, carrier free); also called c-MET ECD/Fc; c-MET-ECD/Fc fusion; not shown: immunoglobulin Fc domain

[2] = biological target: T1, c-MET extracellular domain (ECD)/Fc …; assay: binding ELISA on c-MET ECD/Fc, Q-pure
[3] = biological target: T1, c-MET extracellular domain (ECD)/Fc …; assay: AlphaScreen competition with bn-HGF for c-MET ECD/Fc, Q-pure
[4] = biological target: T1, c-MET extracellular domain (ECD)/Fc …; assay: AlphaScreen competition with bn-HGF for c-MET ECD/Fc, NiNTA-pure

T1 sequence (P08581 25-932, change not shown): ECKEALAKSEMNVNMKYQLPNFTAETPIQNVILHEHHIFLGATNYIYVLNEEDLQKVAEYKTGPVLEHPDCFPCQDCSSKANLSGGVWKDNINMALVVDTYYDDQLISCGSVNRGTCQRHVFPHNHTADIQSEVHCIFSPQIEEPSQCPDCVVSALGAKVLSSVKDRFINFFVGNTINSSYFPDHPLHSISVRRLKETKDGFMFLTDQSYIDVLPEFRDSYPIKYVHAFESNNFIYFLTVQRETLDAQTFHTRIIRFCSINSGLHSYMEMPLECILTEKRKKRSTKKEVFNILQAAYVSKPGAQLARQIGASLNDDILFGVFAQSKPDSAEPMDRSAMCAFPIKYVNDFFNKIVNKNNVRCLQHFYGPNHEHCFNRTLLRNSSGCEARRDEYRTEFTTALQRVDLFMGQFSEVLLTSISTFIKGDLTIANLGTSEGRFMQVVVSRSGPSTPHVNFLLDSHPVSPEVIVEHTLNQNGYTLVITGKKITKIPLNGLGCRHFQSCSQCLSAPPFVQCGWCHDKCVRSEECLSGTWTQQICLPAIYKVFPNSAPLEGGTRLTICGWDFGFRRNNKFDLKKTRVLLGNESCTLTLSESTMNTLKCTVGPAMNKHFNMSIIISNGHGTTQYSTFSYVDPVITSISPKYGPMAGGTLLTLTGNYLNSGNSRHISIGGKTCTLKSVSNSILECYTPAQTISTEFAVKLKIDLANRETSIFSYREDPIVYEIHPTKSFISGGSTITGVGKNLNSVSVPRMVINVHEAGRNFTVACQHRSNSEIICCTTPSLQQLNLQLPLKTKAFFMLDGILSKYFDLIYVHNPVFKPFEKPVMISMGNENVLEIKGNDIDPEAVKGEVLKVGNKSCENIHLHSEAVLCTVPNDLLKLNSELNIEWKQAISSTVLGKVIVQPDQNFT

Binder | Kd [1] [nM] | Kd [2] [nM] | IC50 [3] [nM] | IC50 [4] [nM]
B1 | 2.4 | 0.3 | 1 | 2
B2 | 69 |  |  | 392
B3 | 9.7 | 2 | 23 | 15
